According to PubChem BioAssay AID1240 (Sanford-Burnham Center for Chemical Genomics, 2008):
Among all 50,000 compounds or so, about 800 (1.6%) showed an effect of 50% or more. This is one part of the list.

molecular target: Bcl-2-like protein 10 (Homo sapiens) (UniProt Q9HD36); assay: Phenotype converters, Bcl-B/TR3 peptide binding displacement, primary biochemical FP (AID 1240); conditions: GST-Bcl-B / FITC-TR3 peptide fluorescence polarization; stronger effect = higher value; compound at 3.75 mg/L;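 further: 0% = Bcl-B with tracer peptide and DMSO and 100% = tracer peptide lacking Bcl-B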
UniProt Q9HD36, sequence (Q9HD36 whole entry, looked up): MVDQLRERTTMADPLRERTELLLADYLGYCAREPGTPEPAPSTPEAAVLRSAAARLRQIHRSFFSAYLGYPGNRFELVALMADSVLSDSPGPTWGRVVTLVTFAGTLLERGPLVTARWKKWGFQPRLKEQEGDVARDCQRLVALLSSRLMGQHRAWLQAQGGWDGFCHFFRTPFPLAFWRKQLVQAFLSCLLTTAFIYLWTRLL

Structure (SMILES) | displacement [%]
COc1ccc(C(=O)N2N=C(C)CC2(O)c2ccc(Br)cc2)cc1 (stereo not drawn) | -6.5
CN1CCO/C1=C(C#N)\C=C1\Nc2ccccc2C1=O | -77.4
CCOc1ccc(C(=O)Nc2cc(C(=O)OC)cc(C(=O)OC)c2)cc1[N+](=O)[O-] | 7.6
Cc1ccc(N2C(=O)C(Cl)=C(Nc3ccccc3F)C2=O)c(C)c1 | 71.5
O=C(O)c1ccc2c(c1)C(=O)N(c1ccc(-c3nc4ccccc4c(=O)o3)cc1)C2=O | 1.6
O=C(COc1ccc(I)cc1)Nc1ccc2c(c1)oc1ccccc12 | -26.6
O=C(Nc1ccc(F)cc1)c1ccc([N+](=O)[O-])cc1 | 12.7
O=c1cc(-c2ccccc2)[nH]n1-c1nc(-c2ccccc2)cc(-c2ccccc2O)n1 | 4.8
Cc1ccc(/C=C2/NC(=S)NC2=O)s1 | 8
CC(C)OC(=O)c1cnn2c(C(F)(F)F)cc(-c3ccc(F)cc3)nc12 | 10.9
O=C(N/N=C/c1ccc(Br)cc1)C1CC(=O)N(c2ccc(F)cc2)C1 (stereo not drawn) | -9.8
COc1ccc(OC)c(C2NC(=S)NC(C)=C2C(=O)Nc2cc(Cl)ccc2C)c1 (stereo not drawn) | 1.9
COc1cc([N+](=O)[O-])cc(/C=C2\C(=O)NC(=O)N(c3ccc(Br)c(C)c3)C2=O)c1O | 7.2
CC(C)CCN(CCN1C(=O)c2ccccc2C1=O)CCN1C(=O)c2ccccc2C1=O | 17.9
Cc1ccc(N(C(=O)C(Cl)(Cl)Cl)C2C=CS(=O)(=O)C2)cc1 (stereo not drawn) | 15.1
CC(=O)CC(=O)Nc1ccc(-c2ccc(NC(=O)CC(C)=O)c(C)c2)cc1C | 3.5
Cc1cc(NC(=O)c2ccc(Br)cc2)ccc1NC(=O)c1ccccc1 | 4.3
COc1ccc(NC(=O)Nc2ccccc2I)cc1OC | -25.9
Cc1cccc(NC(=O)COc2c(C)cc(C)cc2C)c1 | 11
CC(C)c1ccc(C2/C(=C(\O)c3ccccc3)C(=O)C(=O)N2c2cccnc2)cc1 (stereo not drawn) | 10.1
COc1ccc(C/C(N)=N/OC(=O)c2ccc(Cl)cc2)cc1 | -6.7
Cc1ccc(N2C(=O)C(Cl)=C(Nc3ccc(C)c(C)c3)C2=O)c(C)c1 | 7.7

Structure (SMILES) | displacement [%]
CC(NC(=O)CSC(=O)c1ccccc1)c1ccccc1 (stereo not drawn) | -2.9
O=S(=O)(Nc1ccc2oc(-c3ccccc3F)nc2c1)c1ccccc1 | 1.3
COc1ccccc1NC(=O)CC1S/C(=N\N=C(/C)c2ccc([N+](=O)[O-])cc2)NC1=O (stereo not drawn) | 3
CC1=C(C(=O)OC(C)C)C(c2cc(Br)ccc2F)CC(=O)N1 (stereo not drawn) | -6
O=C(CSc1nnnn1-c1ccccc1)NC12CC3CC(CC(C3)C1)C2 | -25.5
Cc1cc(/C=N/c2nc3ccc(Br)cc3n2C)c(O)c([N+](=O)[O-])c1 | -9.2
CCc1ccccc1NC(=O)[C@H]1CC=CC[C@H]1C(=O)O | 13.6
O=C(NCCCO)C(=O)NCc1ccccn1 | -4.1
COc1ccccc1/C=N/Nc1cc(N2CCOCC2)nc(N2CCOCC2)n1 | 10.4
CCCCOC(=O)C1=C(C)NC2=C(C(=O)CC(c3ccccc3)C2)C1c1ccc(O)c([N+](=O)[O-])c1 (stereo not drawn) | -7.4
CCOC(=O)c1ccc(NC(=O)c2cc(Br)ccc2Cl)cc1 | -5.9
CC(=O)N(C1=C(Cl)C(=O)c2ccccc2C1=O)c1ccc(Cl)cc1 | -5.3
COc1cc(CN2CCN(C(=O)CC(C)C)CC2)cc(OC)c1 | -11
CCCc1cc(=O)n2[nH]c(-c3ccc(C)cc3)c(C)c2n1 | 9.4
COc1ccc(/C=C/C(=O)CC(=O)C(Cl)(Cl)Cl)cc1 | 12.7
O=C(C1CCCO1)N1CCN(c2cccc(Cl)c2)CC1 (stereo not drawn) | 0.3
Cc1c(NC(=O)Cc2ccccc2)c(=O)n(-c2ccccc2)n1C | -13.4
O=C(c1cccnc1)N1CCN(C(=O)c2cccs2)CC1 | 33.6
COC(=O)C1=C(C)NC(C)=C(C(=O)OC)C1c1ccc(Br)cc1 | -2.4
CCOC(=O)c1c(N)sc(C(=O)Nc2ccc3c(c2)OCO3)c1C | 6.7
O=[N+]([O-])c1ccccc1-c1nc(-c2ccccc2)c(-c2cccs2)[nH]1 | 0.8
CCN=C1S/C(=C\c2ccc(I)o2)C(=O)N1CC | -19.5

Structure (SMILES) | displacement [%]
COc1ccc(C(C[N+](=O)[O-])c2c[nH]c3ccccc23)cc1 (stereo not drawn) | 31.9
O=C(Nc1ccc(OC(F)(F)F)cc1)C1CCCN1S(=O)(=O)c1ccc(Cl)cc1 (stereo not drawn) | -6.1
O=C(COc1ccc(Cl)cc1)Nc1ccc2c(c1)OCO2 | -3.5
CC(C)c1ccccc1OCCCN1CCCCC1 | -1.2
O=C(C(c1ccccc1)c1ccccc1)N1CCC(Cc2ccccc2)CC1 | 0.5
COc1ccc(/C=C2/Sc3ccccc3C2=O)cc1[N+](=O)[O-] | -5.3
COc1ccccc1C(=O)Nc1ncn[nH]1 | 5.4
O=C(COc1ccc(Cl)cc1Cl)OCc1ccccc1 | -9.2
CCOC(=O)C1=NNC(C(=O)c2ccc(Cl)cc2)C1c1ccc(OC)cc1 (stereo not drawn) | -5.3
COC(=O)C1=C(C)N(C)C(C)=C(C(=O)OC)C1c1ccc(OCc2ccccc2)cc1 | -3.9
CCCC(=O)Nc1cccc(NC(=O)COc2ccc(Br)cc2)c1 | 1.6
Cn1c(=N)n(CC(=O)c2cc(C(C)(C)C)c(O)c(C(C)(C)C)c2)c2ccccc21 | 8.5
O=C(CN1C(=O)C(=O)c2ccccc21)c1ccc(Cl)cc1 | 3.2
Cc1ccc(/C=C2/SC(=S)N(CCC(=O)N3c4ccccc4Sc4ccccc43)C2=O)cc1 | 10
O=C(O)c1cccc(C(=O)Cc2ccccc2)c1 | -1.9
C=CCC(O)(CC=C)c1cc(-c2ccccc2)nc2ccccc12 | 5.9
COC(=O)C1=C(C)N=c2s/c(=C\c3ccc(F)cc3)c(=O)n2C1c1ccccc1 (stereo not drawn) | 12.6
Cc1sc2nc(SCC(=O)NCCCN3CCOCC3)[nH]c(=O)c2c1C | -1.2
CCC(C)c1ccc(NC(=O)/C=C/c2cccc([N+](=O)[O-])c2)c(O)c1 (stereo not drawn) | 7.6
O=C(Nc1ccc(OCc2ccccc2)cc1)c1cncc(Br)c1 | 10.3
Cc1cc(Br)ccc1OCC(=O)N1CCCCC1 | 3.8
O=C(Nc1ccc(Cl)c(Cl)c1)c1cccc(F)c1 | -2.1

Structure (SMILES) | displacement [%]
O=C(CCC1CCCC1)N1CCN(C2CCCCC2)CC1 | -0.4
Cc1ccc(NC(=O)CN(c2ccc(Oc3ccccc3)cc2)S(C)(=O)=O)cc1C | 5.9
Cc1ccccc1C(=O)Nc1ccc(C(=O)Nc2nccs2)cc1 | -13.4
CC1=CC(C)(C)N(C(=O)Nc2ccccc2)c2c(C)cc(C)cc21 | 3.9
O=C1OC(c2ccccc2)=N/C1=C/c1ccco1 | 0.3
CCCCC(=O)N1c2c(C)cccc2C(Nc2ccccc2C)CC1C (stereo not drawn) | 4.7
CCOC(=O)c1c(NC(=O)c2ccccc2C)sc2c1CC(C)(C)OC2 | -15.2
CCc1ccc(NC(=O)CSc2nnc(C)s2)cc1 | -4.7
CNC(=S)N(C)/N=C/c1c(Cl)cccc1[N+](=O)[O-] | 8.7
CCOc1ccc(C2/C(=C(\O)c3ccc([N+](=O)[O-])cc3)C(=O)C(=O)N2CCCCCC(=O)O)cc1 (stereo not drawn) | 8.5
CC1=C(C(=O)Nc2ccccc2)C(c2cccc(Br)c2)NC(=O)N1 (stereo not drawn) | 1.4
Cc1cc(Cl)ccc1OC(=O)COc1ccc([N+](=O)[O-])cc1 | 2.1
CC(=O)CC(=O)Nc1ccc(F)cc1F | 6.5
CC1CCN(C(=O)CSc2nc3ccc([N+](=O)[O-])cc3s2)C(C)C1 (stereo not drawn) | 2.3
CCOC(=O)C1=C(C)N=c2s/c(=C\c3cc(OC)ccc3OC)c(=O)n2C1c1cccc(OC)c1 (stereo not drawn) | 9.6
CC(=O)Nc1cc(-c2ccc(Cl)cc2)[nH]n1 | 11
O=C(N/N=C/c1ccc[nH]1)c1ccccc1[N+](=O)[O-] | -1.5
O=C1CC(c2ccc(Cl)cc2)CC2=C1C(c1cc3c(cc1Cl)OCO3)Nc1ccccc1N2 (stereo not drawn) | -2.9
CC(C)C(=O)NS(=O)(=O)c1ccc(NC(=O)c2ccccc2Cl)cc1 | 14.3
CCc1ccc(NC(=O)CSc2nnc(SCC(=O)Nc3ccc(CC)cc3)s2)cc1 | 8
COc1ccc(-c2nc(=S)c3c(n2CCCO)CCCC3)cc1 | -5.3
CN1C(=O)C(=Cc2cc([N+](=O)[O-])cc(Br)c2O)C(=O)N(C)C1=O | 16.5

Structure (SMILES) | displacement [%]
Cc1onc(-c2ccccc2Cl)c1C(=O)Nc1ccc(O)c(C(=O)O)c1 | 6.8
CS(=O)(=O)N(CC(=O)O)c1ccc(F)cc1 | 6.7
O=C(c1cccc([N+](=O)[O-])c1)c1ccc2c(c1)C(=O)N(c1ccc(Cl)cn1)C2=O | 0.7
CCCN1C(=O)c2ccccc2NC1c1ccc(OC)c(COc2ccccc2F)c1 (stereo not drawn) | -1.5
CCOc1ccc(/C=C2\SC(=O)N(c3ccccc3)C2=O)cc1 | -1.9
Cc1nc2cc(-c3cccc(F)c3)[nH]n2c(=O)c1C | 12.1
CCOc1ccc(/C=C2\N=C(c3ccccc3F)OC2=O)cc1 | 11
CC1=C(C(=O)OC2CCCCC2)C(c2cccc3ccccc23)C2=C(CCCC2=O)N1 (stereo not drawn) | 1.2
COC(=O)c1ccc(/C=C2\SC(=S)N(NC(=O)Cc3ccccc3)C2=O)cc1 | -6.3
CCOc1ccc(NC(=O)COc2ccc(Br)cc2)cc1 | 1.8
Cc1cc(=O)oc2c1c(C)nn2-c1ccc(Br)cc1 | 2.1
COc1ccc(/C=C2\SC(=S)N(CC(C)C)C2=O)c(OC)c1 | 9.8
COCCN1C(=O)C(=O)/C(=C(/O)c2ccccc2)C1c1ccc(Cl)cc1 (stereo not drawn) | 15.8
CCOC(=O)C1C(=O)OC2(CCCCC2)C1C(=O)OCC (stereo not drawn) | -10.1
CC(C)N1CN=C2SC(CO)(CO)C(=O)N2C1 | 9.8
COc1cc(CN2CCN(Cc3ccc(OC)c(OC)c3OC)CC2)cc(OC)c1O | -12
Cc1ccc(C(=O)NC(=S)NCCCN2CCOCC2)cc1 | -8.5
Cc1ncsc1CCOC(=O)C12CC3CC(CC(C)(C3)C1)C2 | 8.9
COc1ccc(C(=O)Nc2cc([N+](=O)[O-])ccc2C)cc1OC | -2.9
CC1CCN(CCC(=O)N/N=C/c2ccc(N(C)C)cc2)CC1 | -10.2
